The values below come from patent US20250270341A1 (Alector, published 2025).

Experiment [1] has as its target T1, Full length human CD98hc on CHO cells (human).
T1 construct: CHO cells stably overexpressing it; also called CHO-human CD98hc; CHO-huCD98hc
T1 chain: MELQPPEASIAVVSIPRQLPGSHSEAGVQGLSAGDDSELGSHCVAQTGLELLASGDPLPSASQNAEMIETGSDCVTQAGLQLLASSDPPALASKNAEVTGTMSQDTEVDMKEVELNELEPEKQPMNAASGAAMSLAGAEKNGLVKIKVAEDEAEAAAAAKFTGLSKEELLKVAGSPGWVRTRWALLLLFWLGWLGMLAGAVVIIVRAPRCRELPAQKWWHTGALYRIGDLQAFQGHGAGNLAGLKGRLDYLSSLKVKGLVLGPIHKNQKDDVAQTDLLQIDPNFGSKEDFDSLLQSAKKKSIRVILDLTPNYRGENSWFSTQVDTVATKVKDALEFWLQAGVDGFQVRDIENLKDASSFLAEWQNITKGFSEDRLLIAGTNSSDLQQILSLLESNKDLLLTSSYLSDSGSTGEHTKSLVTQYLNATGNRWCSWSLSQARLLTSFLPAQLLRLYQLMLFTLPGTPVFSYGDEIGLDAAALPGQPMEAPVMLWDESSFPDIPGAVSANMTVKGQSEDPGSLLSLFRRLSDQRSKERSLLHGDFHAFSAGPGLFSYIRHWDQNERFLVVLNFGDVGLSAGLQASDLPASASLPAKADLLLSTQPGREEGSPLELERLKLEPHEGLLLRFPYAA
Put plainly: FACS, 5 ug/ml. A general note: A flow cytometer gives signals particle by particle.

Experiment [2] concerns the target T2, Full length mouse CD98hc on CHO cells (mouse, UniProt P10852 1-526).
T2 construct: CHO cells stably overexpressing it; also called CHO-mouse CD98hc; CHO-mCD98hc
T2 sequence: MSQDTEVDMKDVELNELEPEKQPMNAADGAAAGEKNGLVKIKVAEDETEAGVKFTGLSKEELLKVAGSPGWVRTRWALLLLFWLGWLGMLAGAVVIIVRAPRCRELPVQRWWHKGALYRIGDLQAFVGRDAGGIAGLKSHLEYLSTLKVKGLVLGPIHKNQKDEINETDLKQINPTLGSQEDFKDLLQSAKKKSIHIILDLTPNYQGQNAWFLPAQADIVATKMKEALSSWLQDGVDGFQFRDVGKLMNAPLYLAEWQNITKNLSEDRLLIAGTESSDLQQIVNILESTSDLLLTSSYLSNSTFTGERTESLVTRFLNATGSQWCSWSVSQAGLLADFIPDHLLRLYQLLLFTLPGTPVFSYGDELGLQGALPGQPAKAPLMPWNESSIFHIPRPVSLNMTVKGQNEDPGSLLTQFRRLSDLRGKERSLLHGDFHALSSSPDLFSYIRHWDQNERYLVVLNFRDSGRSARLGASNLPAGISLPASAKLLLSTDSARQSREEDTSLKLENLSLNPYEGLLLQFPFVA
Briefly: FACS, 5 ug/ml.

Experiment [3] addresses T3, muCD98hc ECD Avi-His (mouse, UniProt P10852 100-526).
T3 construct: biotinylated on the Avi tag where captured on streptavidin; also called Mouse CD98-AVI-His; Mouse CD98hc-AVI-His
T3 sequence: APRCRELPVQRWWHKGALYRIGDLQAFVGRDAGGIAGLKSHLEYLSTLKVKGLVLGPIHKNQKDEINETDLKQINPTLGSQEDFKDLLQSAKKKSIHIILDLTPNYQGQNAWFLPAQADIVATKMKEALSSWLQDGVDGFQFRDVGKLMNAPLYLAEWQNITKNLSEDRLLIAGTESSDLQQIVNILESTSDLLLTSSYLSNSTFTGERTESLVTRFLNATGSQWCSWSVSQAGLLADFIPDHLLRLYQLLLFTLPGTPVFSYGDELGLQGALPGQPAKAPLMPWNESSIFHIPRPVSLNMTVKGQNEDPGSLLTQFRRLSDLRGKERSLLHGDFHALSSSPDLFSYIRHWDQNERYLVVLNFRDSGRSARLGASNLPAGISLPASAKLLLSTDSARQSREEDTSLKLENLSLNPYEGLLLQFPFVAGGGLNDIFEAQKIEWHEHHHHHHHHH
Put plainly: ELISA, 1 ug/ml.

For experiment [4], the target named is T4, Human TfR-AVI-His (control) (human, UniProt P02786).
T4 construct: control protein; also called Avi-His-tagged human TfR; human transferrin receptor
T4 sequence (P02786 89-760 limits assumed): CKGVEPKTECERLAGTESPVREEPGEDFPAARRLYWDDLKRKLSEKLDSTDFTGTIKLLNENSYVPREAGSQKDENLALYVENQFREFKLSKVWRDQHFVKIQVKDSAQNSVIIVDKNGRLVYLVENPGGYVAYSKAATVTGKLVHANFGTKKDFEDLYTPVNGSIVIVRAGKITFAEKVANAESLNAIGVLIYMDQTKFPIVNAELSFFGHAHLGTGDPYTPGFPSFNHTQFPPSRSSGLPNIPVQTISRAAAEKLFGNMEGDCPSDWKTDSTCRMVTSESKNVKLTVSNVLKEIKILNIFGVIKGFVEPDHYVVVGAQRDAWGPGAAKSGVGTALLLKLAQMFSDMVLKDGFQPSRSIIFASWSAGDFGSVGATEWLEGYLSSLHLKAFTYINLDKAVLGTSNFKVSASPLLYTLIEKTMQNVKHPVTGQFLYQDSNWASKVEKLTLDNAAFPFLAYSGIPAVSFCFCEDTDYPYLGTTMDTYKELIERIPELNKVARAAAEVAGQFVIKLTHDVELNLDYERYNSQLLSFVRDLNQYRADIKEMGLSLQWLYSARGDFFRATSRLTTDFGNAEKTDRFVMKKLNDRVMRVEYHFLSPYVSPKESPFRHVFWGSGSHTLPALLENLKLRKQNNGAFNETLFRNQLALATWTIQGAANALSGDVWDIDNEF
Put plainly: ELISA, 1 ug/ml. In general terms: An ELISA detects its analyte on a solid surface through an enzyme-linked reagent.

B1: CD98hc.04.003 (2+1 bispecific antibody) (bispecific antibody)
heavy 1: EVRLLESGGGLVQPGGSLRLSCAASGFTFSNYAMGWVRQAPGKGLEWVSAISGSGGSTYYADSVKGRFTTSRDDSKNALYLQMNSLRAEDTAVYYCARGGPGWYAADVWGQGTTVTVSSASTKGPSVFPLAPSSKSTSGGTAALGCLVKDYFPEPVTVSWNSGALTSGVHTFPAVLQSSGLYSLSSVVTVPSSSLGTQTYICNVNHKPSNTKVDKKV[here human IgG1 Fc with changes without letters]GGGGSGGGGSGGGGSQVQLQQSGAELAKPGASLKMSCKASGYTFTDYYIHWVKQRPGQDLEWIGYINPNSAYTDSNQKFKDKATLTADKSSNTAYMQLSSLTSEDSAVYYCARKGHFYAPSFAYWGQGTLVTVSAGGSEGKSSGSGSESKSTGGSDIQMTQTTSSLSASLGDRVTISCRASQDISNYLNWYQQKPDGTVKLLIYYTSRLHSGVPSRFSGSGSGADYSLTISNLQQEDIATYFCQQGDTLPYTFGGGTKLEIE
heavy 2: EVRLLESGGGLVQPGGSLRLSCAASGFTFSNYAMGWVRQAPGKGLEWVSAISGSGGSTYYADSVKGRFTTSRDDSKNALYLQMNSLRAEDTAVYYCARGGPGWYAADVWGQGTTVTVSS[here human IgG1 constant region with changes without letters]
light: DIQMTQSPSSLSASVGDRVTITCRASQSISSYLNWYQQKPGKAPKLLIYAASSLQSGVPSRFSGSGSGTDFTLTISSLQPEDFATYYCQQADLPAFAFGGGTKVEIKRTVAAPSVFIFPPSDEQLKSGTASVVCLLNNFYPREAKVQWKVDNALQSGNSQESVTEQDSKDSTYSLSSTLTLSKADYEKHKVYACEVTHQGLSSPVTKSFNRGEC
Consider B1, for which the entries for the “MFI fold-change relative to isotype hIgG1” value in experiment [1] and in experiment [2] were 3 and 0.5, respectively. Moreover, the “ELISA fold-change relative to isotype hIgG” value in experiment [3] and in experiment [4] was 1.1 throughout.

B2: CD98hc.04.011 (2+1 bispecific antibody) (bispecific antibody)
heavy 1: EVRLLESGGGLVQPGGSLRLSCAASGFTFSNYAMGWVRQAPGKGLEWVSAISGSGGSTYYADSVKGRFTTSRDDSKNALYLQMNSLRAEDTAVYYCARGGPGWYAADVWGQGTTVTVSSASTKGPSVFPLAPSSKSTSGGTAALGCLVKDYFPEPVTVSWNSGALTSGVHTFPAVLQSSGLYSLSSVVTVPSSSLGTQTYICNVNHKPSNTKVDKKV[here human IgG1 Fc with changes without letters]GGGGSGGGGSGGGGSDVQLQESGPDLVKPSQSLSLTCSVTVYSFTSVYSWHWIRQFPGNKLEWMGYIHDSGTTNYNPSLKSRISVTRDTSKNQFFLQLNSVTTEDTATYYCARGRPYGYDGFAYWGQGTLVTVSAGGSEGKSSGSGSESKSTGGSDIQMTQSSSYLSVSLGDRVTITCKASDHINNWLAWYQQKPGNAPRLLITGAVNLETGVPSRFSGSGSGKDYTLSITSLQTEDVATYYCQQYWSIPRTFGGGTNLEIK
heavy 2: EVRLLESGGGLVQPGGSLRLSCAASGFTFSNYAMGWVRQAPGKGLEWVSAISGSGGSTYYADSVKGRFTTSRDDSKNALYLQMNSLRAEDTAVYYCARGGPGWYAADVWGQGTTVTVSS[here human IgG1 constant region with changes without letters]
light: DIQMTQSPSSLSASVGDRVTITCRASQSISSYLNWYQQKPGKAPKLLIYAASSLQSGVPSRFSGSGSGTDFTLTISSLQPEDFATYYCQQADLPAFAFGGGTKVEIKRTVAAPSVFIFPPSDEQLKSGTASVVCLLNNFYPREAKVQWKVDNALQSGNSQESVTEQDSKDSTYSLSSTLTLSKADYEKHKVYACEVTHQGLSSPVTKSFNRGEC
With B2, the figures for the “MFI fold-change relative to isotype hIgG1” value in experiment [1] and in experiment [2] were 4.4 and 0.7, respectively. The results for the “ELISA fold-change relative to isotype hIgG” value in experiment [3] and in experiment [4] were 1.4 and 1.2, respectively.

B3: CD98hc.04.009 (2+1 bispecific antibody) (bispecific antibody)
heavy 1: EVRLLESGGGLVQPGGSLRLSCAASGFTFSNYAMGWVRQAPGKGLEWVSAISGSGGSTYYADSVKGRFTTSRDDSKNALYLQMNSLRAEDTAVYYCARGGPGWYAADVWGQGTTVTVSSASTKGPSVFPLAPSSKSTSGGTAALGCLVKDYFPEPVTVSWNSGALTSGVHTFPAVLQSSGLYSLSSVVTVPSSSLGTQTYICNVNHKPSNTKVDKKV[here human IgG1 Fc with changes without letters]GGGGSGGGGSGGGGSQVQLKESGPGLVAPSQSLSITCTVSGFSLTSYGVHWVRQPPGKGLEWLGVIWAGGSTYYNSALMSRLSISKDNAKSQVLLKMSSLQTDDTAMYYCARDNYGGVYLDVWGAGTTVTVSSGGSEGKSSGSGSESKSTGGSENVLTQSPASMSASPGEKVTMTCRASSSVSSSYLHWYQQKSGASPKLWIYSTSNLASGVPARFSGSGSGTSYSLTISSVEAEDAATYYCQQYSGYPLTFGSGTKLEIK
heavy 2: EVRLLESGGGLVQPGGSLRLSCAASGFTFSNYAMGWVRQAPGKGLEWVSAISGSGGSTYYADSVKGRFTTSRDDSKNALYLQMNSLRAEDTAVYYCARGGPGWYAADVWGQGTTVTVSS[here human IgG1 constant region with changes without letters]
light: DIQMTQSPSSLSASVGDRVTITCRASQSISSYLNWYQQKPGKAPKLLIYAASSLQSGVPSRFSGSGSGTDFTLTISSLQPEDFATYYCQQADLPAFAFGGGTKVEIKRTVAAPSVFIFPPSDEQLKSGTASVVCLLNNFYPREAKVQWKVDNALQSGNSQESVTEQDSKDSTYSLSSTLTLSKADYEKHKVYACEVTHQGLSSPVTKSFNRGEC
Regarding B3, the “MFI fold-change relative to isotype hIgG1” value in experiment [1] worked out at 0.9; in experiment [2], 0.3. The “ELISA fold-change relative to isotype hIgG” value in experiment [3] came out at 1.1; in experiment [4], 1.8.

B4: CD98hc.04.012 (2+1 bispecific antibody) (bispecific antibody)
heavy 1: EVRLLESGGGLVQPGGSLRLSCAASGFTFSNYAMGWVRQAPGKGLEWVSAISGSGGSTYYADSVKGRFTTSRDDSKNALYLQMNSLRAEDTAVYYCARGGPGWYAADVWGQGTTVTVSSASTKGPSVFPLAPSSKSTSGGTAALGCLVKDYFPEPVTVSWNSGALTSGVHTFPAVLQSSGLYSLSSVVTVPSSSLGTQTYICNVNHKPSNTKVDKKV[here human IgG1 Fc with changes without letters]GGGGSGGGGSGGGGSQVQLQQSGADLVRPGDSVKISCKGSGYTFTDNTLHWVKQSHAKSLEWIGVISPYYGDASYNQKFKGKATMTVDKSSSTAYMELARLTSEDSAIYYCARVGGRLRLGYYFDHWGQGTTLTVSSGGSEGKSSGSGSESKSTGGSNIMMTQSPSSLAVSAGEKVTMNCKSSQSVLSSSNQKNYLAWYQQKPGQSPKLLIYWASTRESGVPARFTGSGSGTDFSLTITSVQAEDLAVYYCLQYLSSYTFGGGTKLEIK
heavy 2: EVRLLESGGGLVQPGGSLRLSCAASGFTFSNYAMGWVRQAPGKGLEWVSAISGSGGSTYYADSVKGRFTTSRDDSKNALYLQMNSLRAEDTAVYYCARGGPGWYAADVWGQGTTVTVSS[here human IgG1 constant region with changes without letters]
light: DIQMTQSPSSLSASVGDRVTITCRASQSISSYLNWYQQKPGKAPKLLIYAASSLQSGVPSRFSGSGSGTDFTLTISSLQPEDFATYYCQQADLPAFAFGGGTKVEIKRTVAAPSVFIFPPSDEQLKSGTASVVCLLNNFYPREAKVQWKVDNALQSGNSQESVTEQDSKDSTYSLSSTLTLSKADYEKHKVYACEVTHQGLSSPVTKSFNRGEC
Consider B4, for which the “MFI fold-change relative to isotype hIgG1” value was 30.9 in experiment [1] and 1.2 in experiment [2]. Moreover, the figures for the “ELISA fold-change relative to isotype hIgG” value in experiment [3] and in experiment [4] were 1.5 and 1.3, respectively.
